# Test results: the supplement of paper PMC12217912
# Some of the results follow. Sequences were assembled here from the parent chain. Inactive controls read about 0.05.
# B1: TEV protease; numbered along this chain (parent)
# chain: MGESLFKGPRDYNPISSSICHLTNESDGHTTSLYGIGFGPFIITNKHLFRRNNGTLVVQSLHGVFKVKDTTTLQQHLVDGRDMIIIRMPKDFPPFPQKLKFREPQREERICLVTTNFQTKSMSSMVSDTSCTFPSGDGIFWKHWIQTKDGQCGSPLVSTRDGFIVGIHSASNFTNTNNYFTSVPKNFMELLTNQEAQQWVSGWRLNADSVLWGGHKVFMVKPEEPFQPVKEATQL
# Variants of: B1
# Assay: raw area under fraction-flipped curve 0-4 h after induction (AUC4h, not background-subtracted), DNA-recorder readout of cleavage of the substrate (dimensionless); higher = more cleavage of the substrate by the protease variant
# Details: temperature: 34 °C; time window: 0-4 h after rhamnose induction
# 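Note: Bxb1 expression induced with 0.2% (w/v) L-rhamnose at OD600 near 0.5, cultures sampled hourly, flipped fraction per protease–substrate barcode pair counted by paired-end Illumina sequencing.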
Variant,area with substrate ENLYFQD,area with substrate ENLYFQF,area with substrate ENLYFQG,area with substrate ENLYFQH,area with substrate ENLYFQN,area with substrate ENLYFQS,area with substrate ENLYFQT,area with substrate ENLYFQV,area with substrate ENLYFQK,area with substrate ENLYFQL
I145L,0.0664,0.0779,0.0858,0.0557,0.0745,0.097,0.0815,0.0629,–,–
T114E,–,–,–,0.0671,–,0.0859,0.0748,–,0.0679,0.0612
F6S,–,–,0.115,–,0.0976,0.102,–,0.0607,0.0566,–
N116H,–,–,–,–,0.0803,0.103,–,–,–,0.0682
D91R,–,–,–,–,–,0.103,–,–,–,–
N193L,0.0567,–,–,0.0686,0.0566,0.0879,–,0.0771,0.0653,0.0531
L211A,–,–,–,–,–,0.116,0.0553,–,–,–
Q105P,0.0431,–,–,0.0453,0.0498,0.0515,–,0.0592,0.0492,0.0552
F101L,–,–,–,–,0.0485,0.087,–,0.0472,0.0579,0.0488
Q59P,0.0354,–,–,0.0263,0.0537,0.0421,0.0302,–,–,0.0372
Q59D,–,–,–,–,–,0.0884,0.079,–,–,0.0738
K98D,–,–,–,0.0624,–,0.106,0.0644,–,0.0682,0.0702
F226R,0.0707,–,–,–,0.0767,0.103,0.0987,–,0.0487,0.0815
S169E,–,–,–,–,0.0531,0.0582,0.0714,–,0.0549,–
V113F,–,–,0.0752,–,–,0.0955,–,–,–,–

# Same assay, conditions: temperature: 34 °C; time window: 0-4 h after rhamnose induction
Variant,area with substrate ENLYFQM,area with substrate ENLYFQR,area with substrate ENLYFQI,area with substrate ENLYFQP,area with substrate ENLYFQQ,area with substrate ENLYFQY,area with substrate ENLYFQW
T114E,0.114,0.0509,–,–,–,–,–
F6S,–,0.0546,0.0478,0.067,0.0422,0.0867,–
N116H,–,0.0545,–,0.0664,0.0851,–,–
D91R,–,–,–,–,0.0879,0.109,–
N193L,0.0675,0.0514,0.0649,0.065,–,0.0825,–
L211A,–,–,–,0.0524,0.0732,–,0.0146
Q105P,0.0537,0.0516,0.039,0.0719,–,–,0.0326
F101L,–,0.0551,0.0551,0.0546,–,–,0.0615
Q59P,0.0259,0.0371,–,–,–,–,–
Q59D,0.0772,0.0542,0.0466,0.0501,–,–,–
K98D,–,0.0656,0.0649,–,0.0692,0.0672,0.059
F226R,–,0.0559,–,–,–,0.0657,–
S169E,0.0712,0.054,0.0375,–,–,–,0.0624
